# PubChem BioAssay AID2546 (National Center for Advancing Translational Sciences (NCATS), 2010)
# About 11,000 (3.5%) of roughly 310,000 compounds were called active. The inconclusive results got no clear call from the source; some entries with a clear call stand among them for comparison. Calls follow the shape of the dose curve; as a rule, active = well fitted inhibition curve with a large enough effect; inconclusive = small, poorly fitted or top-dose-only effect, or effect the other way; inactive = flat fitted curve, though single readings scatter. Potencies of inconclusive entries are left out as doubtful fits.
# Assay: VP16 counterscreen qHTS for inhibitors of ROR gamma transcriptional activity;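 also: Gal4-VP16 expression switched on by copper sulfate through the metallothionein promoter; nearly all actives have a fitted effect of over 50% in size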
# Settings: Drosophila S2 Gal4-VP16 UAS-luciferase, luminescence, 20 h; activity, negative = inhibition: at 53.6 µM (top of the series)
# % is scaled to controls: 0 for no effect and ±100 for the full control effect; potency is read from the fitted curve at half-maximal effect; tags tell the direction and shape of the fitted curve.
Structure (SMILES),Potency,"activity, negative = inhibition"
CC1CC(C)CN(C(=O)c2ccc3c(c2NCCO)C(=O)c2ccccc2C3=O)C1 (stereo unspecified),"inconclusive [inhibitor, single point]",
CCOC(=O)c1c(NC(=O)CN2CCN(C(=O)c3ccco3)CC2)sc2c1CCCC2,"inconclusive [inhibitor, single point]",
FC(F)(F)c1cnc(N/N=C/c2ccncc2)c(Cl)c1,"inconclusive [inhibitor, single point]",
CCC(C)C(=O)Nc1nc(C)c(-c2csc(Nc3ccccc3OC)n2)s1 (stereo unspecified),"inconclusive [inhibitor, single point]",
CCOC(=O)c1ccc(NC(=S)Nc2cccc(C)n2)cc1,"inconclusive [inhibitor, full curve, poor fit]",
Cc1cc(Cl)ccc1NC(=S)NCCc1ccc(Cl)cc1,active: 5.01 µM,
Cc1cc(C)c2c(=O)n(CC(=O)Nc3ccc(Cl)cc3)sc2n1,active: 12.6 µM,
Fc1ccccc1Nc1nc2ccccc2o1,"inconclusive [inhibitor, single point]",
CCCOc1ccc(-c2c(C(=O)N/N=C/c3ccncc3)nnn2-c2nonc2N)cc1,,inactive: -11.5%
S=c1[nH]nc(COc2ccc(Cl)cc2)n1Cc1ccccc1,"inconclusive [inhibitor, partial curve, poor fit]",
O=C(Nc1ccc(F)c(Cl)c1)C1CCN(S(=O)(=O)c2cccnc2)CC1,"inconclusive [inhibitor, single point]",
O=C(NC(=S)NCCc1ccccc1)c1ccccc1F,"inconclusive [inhibitor, single point]",
CC(=O)O[C@@H](C)C#C[Si](C)(C)c1ccccc1,,inactive: 0.0358%
CCOC(=O)C1=NN(c2ccc(C)cc2)C2(S1)SC(C(C)=O)=C(C)N2c1ccccc1 (stereo unspecified),,inactive: -2.93%
Cc1csc(NC(=O)c2nc(-c3ccccc3)n(-c3ccccc3)n2)n1,"inconclusive [inhibitor, single point]",
Cn1c(=O)[nH]c(=O)c2[nH]c(CN3CCN(Cc4ccccc4)CC3)nc21,,inactive: -2.45%
C(=N\NCc1ccccc1)/c1ccc2nccnc2c1,"inconclusive [inhibitor, partial curve]",
Fc1ccccc1/C=N/Nc1ncnc2ccccc12,active: 4.47 µM,
CS(=O)(=O)N(Cc1ccccc1)c1ccc(C(=O)Nc2ccc3c(c2)OCO3)cc1,"inconclusive [inhibitor, single point]",
CCOc1ccc(N2C(=O)/C(=C\c3ccccc3OC)S(=O)(=O)C2c2cccc([N+](=O)[O-])c2)cc1 (stereo unspecified),,inactive: -6.46%
COc1cc(/C=N/NC(=O)c2cc3c(ccc4ccccc43)o2)cc(OC)c1O,"inconclusive [inhibitor, single point]",
Cc1ccc(C(=O)N/N=C\c2ccc([N+](=O)[O-])o2)cn1,"inconclusive [inhibitor, single point]",
S=C(NC1CCCCC1)N1CCN(C/C=C/c2ccccc2)CC1,"inconclusive [inhibitor, single point]",

Structure (SMILES),Potency,"activity, negative = inhibition"
CCOC(=O)c1ccc(NC(=O)c2nc[nH]c2C(=O)N[C@@H](CC(C)C)C(=O)OC(C)(C)C)cc1,active: 6.31 µM,
OC(CNc1ncnc2sccc12)c1ccccc1 (stereo unspecified),active: 6.31 µM,
CC1CCCN(c2ccc(C(=O)NCc3ccc4c(c3)OCO4)cc2[N+](=O)[O-])C1 (stereo unspecified),,inactive: -2.24%
Cc1onc(-c2ccccc2)c1C(=O)c1c[nH]c(C(=O)NCc2ccccn2)c1,,inactive: 9.02%
O=C1C2C3C=CC(CNS(=O)(=O)c4ccccc4[N+](=O)[O-])(O3)C2C(=O)N1c1ccccc1 (stereo unspecified),active: 11.2 µM,
COc1ccc(S(=O)(=O)N2CCCOC2CNC(=O)C(=O)NCCc2ccco2)cc1C (stereo unspecified),,inactive: -4.66%
CC(C)c1ccc(/C=C/C(=O)CCC(=O)O)cc1,"inconclusive [inhibitor, partial curve]",
CC(C)(C)c1ccc(OCc2ccc(C(=O)N/N=C3\CC4CC=CC34)cc2)cc1 (stereo unspecified),active: 4.47 µM,
S=C(Nc1ccc2c(c1)OCO2)Nc1ccc2c(c1)OCO2,"inconclusive [activator, single point]",
Cc1cc(N2CCCC2)nc(SCC(=O)c2ccccc2)n1,"inconclusive [activator, full curve, poor fit]",
C(#Cc1ccccc1)C[N+]1(CC#Cc2cccc3ccccc23)CCCC1,active: 15.8 µM,
CCCCOc1ccc(N(CC(=O)NC(C)(C)C)C(=O)CCC(=O)Nc2nccs2)cc1,,inactive: -2.76%
Cc1nc(-c2ccc(NC(=O)c3ccco3)cc2)cs1,active: 4.47 µM,
CC1CCN(CCCNC(=O)c2ccc3c(=O)n(Cc4ccc(Cl)cc4)c(=S)[nH]c3c2)CC1,active: 20 µM,
Cc1cccc(NC(=S)NC2CCSc3ccccc32)c1 (stereo unspecified),active: 5.62 µM,
CCCN(Cc1ccccc1)C(=S)Nc1ccc(SC(F)F)cc1,"inconclusive [inhibitor, single point]",
COC(=O)c1ccc(C(NC(=O)OCc2ccccc2)/C(F)=C/[C@@H](C)C(=O)NCc2cc(F)cc(F)c2)cc1 (stereo partly specified),,inactive: -12.9%
COc1ccc(NC(=O)CN2CCN(S(=O)(=O)c3ccc(F)cc3)CC2)cc1Cl,"inconclusive [inhibitor, single point]",
O=c1c(O)c(-c2cccs2)oc2ccc(Cl)cc12,"inconclusive [inhibitor, single point]",
O=C(Nc1nc(-c2cc(Cl)sc2Cl)cs1)c1ccccc1,"inconclusive [inhibitor, single point]",
CN1CCC2(CC1)N=C(c1ccc(F)cc1)C(=S)N2C(=O)c1ccccc1,"inconclusive [inhibitor, single point]",
CCOc1ccc(CN2CCNC(=O)C2CC(=O)NCCCC2CCCC2)cc1 (stereo unspecified),"inconclusive [activator, partial curve]",
Cc1cccc(Nc2nc(-c3ccccc3)c(C(=O)Nc3cccnc3)s2)c1,"inconclusive [inhibitor, single point]",
